# Results: the BET-seq Pho4 binding data (Le et al. 2018)
# The other results are listed elsewhere or left out. The energies were worked out here from pooled read counts, against the library average; single values are noisy.
# Target: T1, Pho4 (S. cerevisiae) (UniProt P07270)
# T1 sequence: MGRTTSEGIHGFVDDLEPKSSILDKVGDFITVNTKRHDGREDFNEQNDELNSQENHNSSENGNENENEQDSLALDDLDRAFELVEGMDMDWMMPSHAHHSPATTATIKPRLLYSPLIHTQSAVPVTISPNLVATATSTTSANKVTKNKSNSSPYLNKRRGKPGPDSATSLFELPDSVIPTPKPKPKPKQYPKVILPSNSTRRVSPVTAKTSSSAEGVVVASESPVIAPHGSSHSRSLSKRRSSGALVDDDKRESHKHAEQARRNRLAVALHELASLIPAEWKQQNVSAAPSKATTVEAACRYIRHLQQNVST
# Test: relative binding free energy (BET-seq); higher = weaker binding
# Conditions: reference: library average
row,Sequence,relative binding free energy [kcal/mol]
1,AGGGTCACGTGTCTGT,0.11
2,GAGGGCACGTGTTCTT,0.06
3,TTCTTCACGTGTCATG,0.22
4,TGGGGCACGTGGTGAG,-0.13
5,AGGTGCACGTGGGGTA,-0.19
6,AGTAGCACGTGAGGGC,0.08
7,TTTCGCACGTGTTATT,0.08
8,ATTAACACGTGGGGGG,-0.09
9,CTTGTCACGTGGAGTT,0.04
10,ATATGCACGTGCTTGT,-0.15
11,GGAGGCACGTGTTGAG,0.05
12,TGTATCACGTGTAACT,0.21
13,GGAAGCACGTGGTTTA,0
14,TTTCTCACGTGTGTAG,0.27
15,GATTTCACGTGGTGGA,0.29
16,CTTTACACGTGAAGTT,0.43
17,AATTACACGTGGTCGG,-0.04
18,GGGTACACGTGAATGC,0.31
19,CTGGTCACGTGGGACT,0.06
20,TTATTCACGTGCTCTT,0.22
21,CTTTTCACGTGTTCAT,0.25
22,GTTGACACGTGGATGT,0.13
23,AATGGCACGTGTGAGT,0.03
24,CAATGCACGTGGAGGG,-0.16
25,GAATTCACGTGGGATG,0.21

row,Sequence,relative binding free energy [kcal/mol]
1,TTGGCCACGTGGTCTG,-0.03
2,GTTACCACGTGGTTGG,-0.08
3,AGGGTCACGTGGTCGG,0.06
4,TGATGCACGTGAGGTC,0.24
5,GCGTACACGTGGGTAG,-0.16
6,CGGTGCACGTGAATGT,0.23
7,TAAGGCACGTGGGCAG,-0.35
8,GAAATCACGTGTTTTA,0.27
9,CGAGTCACGTGGTTGC,0.1
10,GGAGCCACGTGCTGGT,-0.05
11,TCGGTCACGTGATAGG,0.16
12,AAGCGCACGTGAGGTG,0.09
13,AAGTACACGTGTGTTT,0.28
14,AGAATCACGTGTTATG,0.26
15,TTGAGCACGTGGGTCT,-0.27
16,ATTCTCACGTGTTGGT,0.27
17,ACTGTCACGTGGGGTG,-0.11
18,AATGTCACGTGGTTTA,0.02
19,AGGTTCACGTGCCTGG,0.26
20,TTCTACACGTGTATAT,0.1
21,TTTTGCACGTGTATCT,0.13
22,GGTTGCACGTGAAGGC,0.33
23,GGTGCCACGTGCAGGT,-0.16
24,TTAGTCACGTGATACT,0.14
25,GTCATCACGTGAAGGG,0.39

row,Sequence,relative binding free energy [kcal/mol]
1,TTTTACACGTGTTTCA,0.19
2,ATGCGCACGTGAAGAT,0.33
3,AGGGGCACGTGGGGTC,-0.19
4,TCGGGCACGTGGAGTC,-0.09
5,TTGTGCACGTGACATA,-0.01
6,GAGAGCACGTGATTGG,0.04
7,AATGTCACGTGAATGT,0.09
8,TTTTTCACGTGAGATA,0.35
9,ATCTTCACGTGTGTTC,0.3
10,CAATGCACGTGAGGAG,0.35
11,AGTCGCACGTGGAGTG,-0.04
12,AATTACACGTGATGGG,0.19
13,TAATCCACGTGGGGTA,-0.11
14,GTTAGCACGTGCGTGG,-0.11
15,ATTTTCACGTGGTTCC,0.37
16,GGTACCACGTGGTCTT,-0.01
17,TGAGTCACGTGAGGTT,0.16
18,TTGTCCACGTGTAGTA,-0.05
19,GGATGCACGTGCGTGG,-0.06
20,TATGGCACGTGGGACT,-0.21
21,GTATACACGTGATTAT,0.09
22,GTATCCACGTGGTTAT,-0.03
23,TGATTCACGTGGATTG,0.23
24,GGGTTCACGTGGCATG,0.29
25,GCTGTCACGTGGGGTG,-0.04

row,Sequence,relative binding free energy [kcal/mol]
1,CGGCACACGTGGTAGG,-0.06
2,ATGGTCACGTGTGGCG,0.16
3,GGGAGCACGTGGAAGA,-0.01
4,GGGAACACGTGGGCGG,-0.21
5,TAAGTCACGTGTAGCT,0.19
6,GGAGACACGTGAGCGT,0.21
7,CTGGGCACGTGCGTGA,-0.2
8,GGGCACACGTGGATTG,0.07
9,TAATGCACGTGGGATA,0.01
10,TGTGTCACGTGGAATA,0.11
11,GGGTGCACGTGAGTAA,0.25
12,AAGAGCACGTGTGTGG,-0.18
13,TGGGTCACGTGTTCCT,0.2
14,TGTTACACGTGTTAAA,0.14
15,TTAGTCACGTGATGTC,0.12
16,GGCGTCACGTGTGTAT,0.19
17,GATATCACGTGTCTGT,0.18
18,GGGGACACGTGGGGTT,-0.05
19,TTGGGCACGTGTATCT,-0.16
20,TGATGCACGTGATCTT,0.06
21,GTTGTCACGTGGGAAG,0.01
22,TGTTGCACGTGACGTG,0.14
23,TATGTCACGTGGCGCG,-0.01
24,GGAATCACGTGAGTGG,0.39
25,TGTGCCACGTGTAGGA,-0.2

row,Sequence,relative binding free energy [kcal/mol]
1,GTGGGCACGTGGTGTG,-0.18
2,TGTTGCACGTGTTGCA,-0.05
3,GAGGTCACGTGAGGGG,0.34
4,TGTTGCACGTGCGTAA,0.05
5,ATTGGCACGTGTGGAT,-0.14
6,GTGTACACGTGATTGG,0.13
7,TGGTGCACGTGCGGTC,-0.14
8,ATGGACACGTGGTGGC,0.1
9,GGATACACGTGGTGAG,0.03
10,GGCTGCACGTGCGAGG,0.04
11,ATTTACACGTGGCTAT,0.05
12,ATTAACACGTGTATTG,-0.13
13,GTAAGCACGTGTGGTT,0.07
14,AGCTACACGTGGATGG,0.04
15,ATTTACACGTGGGGTT,0.15
16,AGGAGCACGTGTATCT,0.07
17,AGGGGCACGTGCGTTT,-0.24
18,TCTGGCACGTGTTGTG,-0.07
19,CAGGTCACGTGTGGTG,0.01
20,ATTGGCACGTGTGTCG,-0.09
21,GGACACACGTGTATGG,0.27
22,AGGGCCACGTGAGTAT,0.09
23,TTTCTCACGTGTGGTG,0.31
24,CGTGTCACGTGGGCTT,-0.07
25,TCATTCACGTGGTCGT,0.32

row,Sequence,relative binding free energy [kcal/mol]
1,TGTCGCACGTGCATTG,0.17
2,CAGGTCACGTGAATGT,0.24
3,GATTACACGTGGGCTG,0.01
4,GTAGGCACGTGTATAG,-0.05
5,AGTTACACGTGAGTCT,0.31
6,AGGACCACGTGGTTGT,-0.18
7,TGATTCACGTGCTAGG,0.24
8,GGTTTCACGTGCATTG,0.25
9,TATTCCACGTGGTTAT,0.04
10,CGAGACACGTGTTTGT,-0.05
11,GTCGGCACGTGTGAAT,0.11
12,TGAGTCACGTGGGGTA,-0.1
13,TAGTACACGTGCTAGG,0.1
14,TAGGGCACGTGCGCGG,-0.3
15,TGTCTCACGTGGATTG,0.27
16,TCGTGCACGTGAGAGG,0.14
17,CTTGGCACGTGTGATT,0.13
18,GGTCACACGTGGGGGT,-0.06
19,TGCTTCACGTGAAGTT,0.28
20,GGTGCCACGTGAGATG,0.18
21,GAATTCACGTGGTGTA,0.36
